# Source: article PMC6919601, “Identification of Plasmodium dipeptidyl aminopeptidase allosteric inhibitors by high throughput screening” (PLoS ONE, 2019)
# Where “and” joins values, the source holds several entries; their conditions need not be identical. Equal values may be shown once. The whole screen tested about 110,000 compounds, of which about 230 (0.21%) showed an effect of 50% or more. The list shows a part of the results.
# Molecular target: DPAP1 (Plasmodium falciparum, UniProt Q8IIJ9)
# Experiment: primary screen, percent inhibition; read by cleavage of a fluorogenic dipeptide substrate; higher = more effect of the substance
# Set-up: species or system P. falciparum D10 trophozoite lysates; single well
# 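Further: 30 min substrate incubation versus DMSO and 10 µM JCP410 controls.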
# DPAP1, sequence (Q8IIJ9 whole entry, looked up): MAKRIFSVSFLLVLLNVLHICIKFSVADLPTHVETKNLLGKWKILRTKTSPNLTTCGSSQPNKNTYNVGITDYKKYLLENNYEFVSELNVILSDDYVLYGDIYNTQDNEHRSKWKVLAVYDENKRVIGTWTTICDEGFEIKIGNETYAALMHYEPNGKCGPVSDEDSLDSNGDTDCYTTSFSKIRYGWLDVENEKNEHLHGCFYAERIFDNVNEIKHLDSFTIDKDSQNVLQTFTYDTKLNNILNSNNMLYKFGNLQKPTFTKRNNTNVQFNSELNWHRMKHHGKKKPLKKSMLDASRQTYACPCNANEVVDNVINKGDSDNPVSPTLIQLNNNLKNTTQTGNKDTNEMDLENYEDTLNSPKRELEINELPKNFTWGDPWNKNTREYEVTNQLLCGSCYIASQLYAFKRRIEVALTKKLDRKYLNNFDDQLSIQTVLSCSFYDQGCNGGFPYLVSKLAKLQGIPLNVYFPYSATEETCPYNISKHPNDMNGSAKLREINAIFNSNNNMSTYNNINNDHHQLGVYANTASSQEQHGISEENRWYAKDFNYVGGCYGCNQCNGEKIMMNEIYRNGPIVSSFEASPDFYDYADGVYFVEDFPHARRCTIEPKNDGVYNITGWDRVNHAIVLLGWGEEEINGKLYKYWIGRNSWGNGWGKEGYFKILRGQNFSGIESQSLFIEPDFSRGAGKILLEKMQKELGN
row,SMILES,% Inhibition @ 10 uM
1,CCOc1ccccc1CN1CCC2(C=Cc3ccccc32)CC1,1.74%
2,CCCCCc1nnc(NC(=O)Nc2ccc([N+](=O)[O-])cc2)s1,-6.07%
3,COc1ccc(CNC(=O)C2=Cc3sc(C)c(C)c3CS2)cc1,16.4%
4,CCN(CC)S(=O)(=O)c1cccc(S(=O)(=O)c2ccc(Cl)cc2)c1,1.64%
5,COc1cccc(C2C(C#N)=C(N)OC3=C2C(=O)CC(C)(C)C3)c1 (stereo not drawn),0.385%
6,COc1cc(/C=C2\C(=O)ON=C2C)ccc1OCCc1ccccc1,-3.63%
7,CC(=O)Nc1ccc(C(=O)CSc2nc3ccccc3s2)cc1,-0.25%
8,COc1ccc(/C=C/C(=O)NC(=S)Nc2ccccc2O)cc1OC,2.35%
9,COc1ccccc1CNC(=O)CN(c1ccc(Cl)c(Cl)c1)S(=O)(=O)c1ccccc1,0.323%
10,CCOC(=O)N1CCN(C(=O)CCCn2nc(C)c3sc4ccccc4c3c2=O)CC1,0.236%
11,Cc1nnc2sc(/C=C/c3ccccc3)nn12,-4.67%
12,CC1=C(C#N)C(=O)N(C)C(=O)/C1=C/c1ccc(-c2cccc(Cl)c2C)o1,0.484%
13,O=C(O)CC(NC(=O)c1ccccc1)c1ccccc1 (stereo not drawn),-5.86%
14,C=CCOC(=O)C1=C(C)NC(=O)NC1c1cn(-c2ccccc2)nc1-c1ccc(OCC)cc1 (stereo not drawn),-1.93%
15,CC(C)CCNC(=O)CCc1nnc2n(Cc3ccccc3Cl)c(=O)c3ccccc3n12,0.981%
16,Cc1ccc(C(=O)Nc2ncn(Cc3ccccc3)n2)cc1,4.26%
17,CC1(C)CC(=O)C2=C(C1)NC(=O)CC2c1ccccc1C(F)(F)F (stereo not drawn),-0.0508%
18,COCCCNC(=O)Cc1ccc(-n2c(C)nc3cccnc32)cc1,1.98%
19,COc1ccc(OC)c(CCNC(=O)Cn2ncc3c2-c2cc(C)ccc2OC3)c1,-2.34%
20,O=C1NC(=S)S/C1=C/c1ccc(-c2ccccc2Cl)o1,5.37%
21,O=C(NCc1cccs1)C1CCCN1S(=O)(=O)c1ccc2[nH]c(-c3ccccc3)nc2c1 (stereo not drawn),7.44%
22,O=C(c1ccc(Cn2c(SCc3ccccc3F)nc3ccncc32)cc1)N1CCCC1,2.99%
23,O=C(O)C1CCC(c2ccccc2)CC1 (stereo not drawn),3.03%
24,Cc1ccc(NC(=O)COc2ccc(Cl)cc2C)cc1F,0.755%
25,COc1ccc(O)c(C2c3[nH]c4ccccc4c3CC3C(=O)N(C)C(=S)N32)c1 (stereo not drawn),21.2%
26,Cc1ccc(Nc2nc3ccccc3nc2NS(=O)(=O)c2ccc(N)cc2)cc1,-5.5%

row,SMILES,% Inhibition @ 10 uM
1,COc1ccc(C2CC(=O)N3CN(Cc4ccccc4)CSC3=C2C#N)c(OC)c1 (stereo not drawn),32.1%
2,Cc1nc2c(c(C)nn2C)c(C)c1CCC(=O)NCCCN1CCC(Cc2ccccc2)CC1,-6.09%
3,O=C(Nc1cccnc1Cl)c1noc2c1COc1ccccc1-2,3.3%
4,COc1ccc(-c2nc(SCC(=O)O)c3c(=O)n(C)c(=O)n(C)c3n2)cc1,3.96%
5,C=CCOc1ccc(C(=O)C2=C(O)C(=O)N(CCCN(C)C)C2c2ccc(F)cc2)c(C)c1 (stereo not drawn),-3.75%
6,Nc1ccc(/C=C/c2ccccc2)c(S(=O)(=O)Oc2ccccc2)c1,0.937%
7,CC1CCN(C(=O)C2CCN(S(=O)(=O)c3c[nH]cn3)CC2)CC1,1.23%
8,O=C(O)c1ccccc1C(=O)Nc1ccc(-c2cn3ccsc3n2)cc1,4.11%
9,CCOC(=O)N1CCC(NC(=O)C2c3ccccc3C(=O)N(C)C2c2cccs2)CC1 (stereo not drawn),3%
10,c1ccn2cc(-c3ccc4c(c3)OCO4)cc2c1,-2.88%
11,Cc1nn(Cc2ccc(C(=O)Nc3ccc(Cn4cccn4)cc3)o2)c(C)c1Cl,-0.988%
12,CCc1ccc(C2C(C#N)=C(N)OC3=C2C(=O)CC(C)(C)C3)cc1 (stereo not drawn),-0.725%
13,Cc1cc(C(=O)CN2CCOCC2)c(C)n1-c1ccc(F)cc1,4.77%
14,CN(Cc1ccco1)C(=O)Cn1nc(-c2ccc(Cl)cc2)ccc1=O,-5.43%
15,CCn1c(C(=O)O)c(CNCc2ccc(C)o2)c2ccc(OC)cc21,3.12%
16,CCCNC(=O)C1CCN(C(=O)c2cc3sccc3n2C)CC1,1.8%
17,CC(C)c1ccc(N2C(=O)c3cccnc3C2=O)cc1,-5.82%
18,c1ccc(-c2ncn3c2CCCCC3)cc1,-1.64%
19,Cc1ccc(Cn2ncc3c(NCCN4CCOCC4)ncnc32)cc1,-3.72%
20,CCCCNC(=O)CCCN1C(=O)CSc2c1c(C)nn2-c1ccccc1,-0.0309%
21,COc1ccc(NC(=O)C(=O)NC2CCCC2)c(OC)c1,2.41%
22,Cc1ccccc1C(=O)Nc1cccc(-c2nc3cc(Cl)ccc3o2)c1,-1.48%
23,CC1=NN(c2nc(-c3ccccc3)cs2)C(=O)C1C (stereo not drawn),4.67% and 2.64%
24,CCOc1ccc(Cn2cc(F)c(=O)[nH]c2=O)cc1,5.52%
25,COc1ccc(CCNc2nc3ccccc3c3nnc(C)n23)cc1OC,4.47%
26,CC1CN(C)C(C)c2c1oc1ccc(N)cc21 (stereo not drawn),-0.833%

row,SMILES,% Inhibition @ 10 uM
1,O=C(COc1ccccc1/C=C1/SC(Nc2ccccc2)=NC1=O)Nc1ccccc1,-1.65%
2,COC(=O)c1sccc1NC(=O)Cn1ncc2c1-c1ccccc1OC2,-9.98%
3,COc1ccc(C(=O)NC2C3CC4CC(C3)CC2C4)cc1Br (stereo not drawn),-7.28%
4,CCCc1nc(Nc2nc3ccccc3s2)ncc1C(=O)OCC,3.36%
5,Cc1cc(O)oc2nnc(C)c1-2,-6.62%
6,Cc1cc(=O)oc2c1c(C)nn2-c1ccccc1,3.44%
7,Cn1c(SCC(=O)Nc2ccccc2)nc2sc3c(c2c1=O)CCCC3,2.46%
8,Cn1nc(C(=O)NCCCN2CCOCC2)c2c1-c1ccccc1S(=O)(=O)C2,0.372%
9,Cc1ccnc(NC(=O)c2cc3ccc4cccnc4c3[nH]2)c1,1.41%
10,CCN(CC)CCNc1ncnc2c1cnn2C,4.28%
11,c1ccc2c(c1)COC(CN1CCCCC1)OC2,-2.8%
12,O=C(CSc1nnc(-c2cccnc2)n1Cc1ccccc1)c1ccc(Br)cc1,-3.75%
13,Cc1ccc(CSc2nc3nncc-3c(O)n2-c2ccc(C)cc2)cc1,2.9%
14,Cc1ccc(C2C(C#N)=C(N)OC3=C2C(=O)CC(C)(C)C3)s1 (stereo not drawn),4.26%
15,COc1cccc(C2C3=C(O)CCCC3=NC(C)=C2C(=O)Nc2cccc(C)n2)c1OC (stereo not drawn),1.4%
16,Cc1ccc(-c2cc(C(=O)Nc3ccncc3)c3ccccc3n2)cc1,-0.95%
17,O=S(=O)(c1ccc(F)cc1)c1cnc(S)nc1O,1.6%
18,CCOC(=O)/C(C#N)=C1/C=CN(C)C=N1,3.6%
19,Cc1c(-c2cccs2)nc2ccccc2c1C(=O)O,0.331%
20,CCN(CC)C(=O)C1CCCN(C2CC(=O)N(c3ccc(Br)cc3)C2=O)C1 (stereo not drawn),4.07%
21,COc1cc2oc(=O)c(CC(=O)N3CCCC3)c(C)c2cc1OC,2.54%
22,COc1ccc(/C=C2/SC(c3ccc(C)cc3)=NC2=O)cc1OC,-1.28%
23,COC(=O)c1cc(S(=O)(=O)N(CC(C)C)CC(C)C)c[nH]1,-6.25%
24,COc1ccc(/C(O)=C/C=N/c2ccc(F)cc2)cc1OC,-6.08%
25,NS(=O)(=O)c1ccc(NC(=O)CS(=O)(=O)Cc2ccccc2)cc1,5.48%
26,O=P(O)(CN1CCCCCC1)C1Cc2ccccc2C1,0.0539%

row,SMILES,% Inhibition @ 10 uM
1,COc1ccc(N2CCN(Cc3ccc(Br)o3)CC2)cc1,3.16%
2,CCCCOc1ccc(C2=N/C(=C\c3ccc4c(c3)OCO4)C(=O)O2)cc1,5.94%
3,Cc1c(C(=O)N2CCC3(CC2)OCCO3)sc2ncnc(N3CCN(c4ccccn4)CC3)c12,2.38%
4,Cc1nn(-c2ccccc2)c2c1N(CC(=O)N1CCN(C(=O)c3ccco3)CC1)C(=O)CS2,1.11%
5,Oc1cccc(-c2csc3nc4ccccc4n23)c1,6.32%
6,CCS(=O)(=O)C1=NN2C(=N)/C(=C\c3ccc(OCc4ccccc4F)cc3)C(=O)N=C2S1,-5.22%
7,O=C(Cc1csc2ccccc12)NCc1ccccc1,3.04%
8,Cc1[nH]c2ccccc2c1CCNCC(C)(C)C,-6.36%
9,CC(NC(=O)C(=O)N1CCCCC1)C(c1cccs1)N1CCOCC1 (stereo not drawn),2.34%
10,O=C(Nc1ccccc1Br)c1c(O)nc2ccccc2c1O,4.15%
11,O=C1CC(Sc2ccccn2)C(=O)N1c1ccc(Br)cc1 (stereo not drawn),2.38%
12,CCc1nc(C)ccc1OCC(=O)O,4.54%
13,CCSc1nnc(NC(=O)c2cccn(OCc3cccc(Cl)c3)c2=O)s1,0.0579%
14,Cc1cc(C(=O)N2CCN(c3ccccn3)CC2)c2c(C)nn(-c3ccccc3)c2n1,-0.0795%
15,O=C(CSc1nc(NCc2ccc3c(c2)OCO3)c2ccccc2n1)c1ccccc1,-5.31%
16,Cc1ccc(N2C(=S)NC(=O)CC2c2ccccc2)cc1 (stereo not drawn),5.73%
17,COc1ccc(COC(=O)C2=C(C)NC(=O)CC2c2ccccc2C)cc1 (stereo not drawn),3.11%
18,Cc1nnc(N2CCC(C(=O)NCc3ccco3)CC2)c2nn(-c3ccc(Cl)cc3)c(C)c12,4.72%
19,CCCN1CCC(NCc2ccc(F)cc2)CC1,4.28%
20,CCOC(=O)c1nc(NCc2ccccc2)c2ccccc2n1,-5.51%
21,CC(C)NC(=O)c1ccccc1NC(=O)CN(c1cccc(F)c1)S(C)(=O)=O,1.03%
22,OCCOCCN1CCN(C2CC3CCC2C3)CC1 (stereo not drawn),-5.11%
23,COc1cc(C(=O)Nc2sc(C)c(C)c2C(N)=O)cc(OC)c1OC,3.8%
24,CCOc1ccc(/C=C/c2nc(C#N)c(NCCOC)o2)cc1,0.895%
